According to article PMC6919601, “Identification of Plasmodium dipeptidyl aminopeptidase allosteric inhibitors by high throughput screening” (PLoS ONE, 2019):
Values joined by “and” are separate entries in the source; they are usually repeats but may differ in a detail not shown here. Equal entries are not always repeated. Screen size: about 110,000 compounds; about 230 (0.21%) showed an effect of 50% or more. The list shows a part of the results.

biological target: DPAP1 (Plasmodium falciparum, UniProt Q8IIJ9); experiment: primary screen, percent inhibition; read by cleavage of a fluorogenic dipeptide substrate; higher = more effect of the substance; design: species or system P. falciparum D10 trophozoite lysates; single well
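Also: 30 min substrate incubation versus DMSO and 10 µM JCP410 controls.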

Sequence of DPAP1 (Q8IIJ9 whole entry, looked up): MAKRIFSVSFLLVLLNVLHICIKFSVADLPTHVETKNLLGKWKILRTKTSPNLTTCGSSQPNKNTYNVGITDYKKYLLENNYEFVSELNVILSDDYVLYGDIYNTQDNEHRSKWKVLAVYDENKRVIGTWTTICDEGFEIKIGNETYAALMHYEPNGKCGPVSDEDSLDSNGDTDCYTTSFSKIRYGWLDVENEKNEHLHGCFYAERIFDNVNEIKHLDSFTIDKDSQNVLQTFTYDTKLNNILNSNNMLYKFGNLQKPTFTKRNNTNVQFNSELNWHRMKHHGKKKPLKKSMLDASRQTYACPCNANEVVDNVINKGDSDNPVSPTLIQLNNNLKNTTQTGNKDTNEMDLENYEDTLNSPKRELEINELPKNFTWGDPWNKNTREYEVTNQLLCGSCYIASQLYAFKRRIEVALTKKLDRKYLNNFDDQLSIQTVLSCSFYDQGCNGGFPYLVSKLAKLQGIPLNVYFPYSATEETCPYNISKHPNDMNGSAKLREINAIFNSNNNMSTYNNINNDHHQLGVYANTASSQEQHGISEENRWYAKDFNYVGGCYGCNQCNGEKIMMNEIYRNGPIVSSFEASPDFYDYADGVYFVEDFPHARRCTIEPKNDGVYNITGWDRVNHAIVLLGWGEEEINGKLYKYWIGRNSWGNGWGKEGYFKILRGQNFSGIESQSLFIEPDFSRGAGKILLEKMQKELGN

| Structure (SMILES) | % Inhibition @ 10 uM |
| --- | --- |
| CCOc1ccc(-c2nonc2NC(=O)c2cc3ccccc3oc2=O)cc1OCC | -6.98% |
| Cn1cnc2c1c(=O)n(Cc1ccccc1Cl)c(=O)n2C | -1.57% |
| COc1ccc(OC)c(-c2cc(C(=O)NCC(C)C)no2)c1 | 2.98% |
| Cc1cccc(-c2nc3n(n2)C(=O)CC(c2ccc(Cl)cc2)S3)c1 (stereo not shown) | -4.62% |
| CCc1nnc2c(NCc3cc(OC)ccc3OC)nc3ccccc3n12 | 2.25% |
| Cc1ccc(C(C)C)c(OCC(O)CN2CCN(C)CC2)c1 (stereo not shown) | 4.42% |
| NS(=O)(=O)c1ccc(NC(=O)CNS(=O)(=O)c2ccc(Cl)cc2)cc1 | 2.43% |
| CC(NC(=O)C1CCCCC1C(=O)O)c1ccccc1 (stereo not shown) | 0.709% |
| N#Cc1ccc(Oc2cccc(C(=O)O)c2)cc1 | -10.1% |
| CCc1ccc(N/C(=N\C(C)=O)Nc2nc(C)cc(C)n2)cc1 | -6.65% |
| CC(C)Cn1cc(C(=O)NC(C)C)c2c3ccccc3n(C)c2c1=O | -10% |
| O=C(NC(Cc1ccccc1)Cc1ccccc1)c1ccccc1Br | -0.292% |
| CCCNC(=O)c1ccc(N2CCN(CCO)CC2)nc1 | 1.94% |
| NC1CCN(c2nc(-c3ccc(F)cc3)cs2)CC1 | -6.56% |
| CCOC(=O)C1=C(C)N=c2s/c(=C\c3ccc(-c4cccc(C(=O)O)c4)o3)c(=O)n2C1c1ccccc1 (stereo not shown) | 6.09% |
| N#Cc1c(NC(=O)CSc2ccccc2)sc2c1CCCC2 | -5.14% |
| COCCn1nnc2c(O)nc(C(=O)NCc3ccccc3Cl)nc21 | -2.91% |
| COCCN1Cc2cccc(C(=O)NC3CCCC3)c2C1=O | -4.14% |
| CCOC(=O)N1CCN(c2nc3ccc(C(=O)c4ccccc4)cc3n3cnnc23)CC1 | 2.42% |
| Cc1ccc(OCC(=O)Nc2ccc3oc(-c4cccnc4)nc3c2)c(C)c1 | -0.67% |
| CCCCNC(=O)CN(C)S(=O)(=O)c1ccc(F)cc1 | -3.87% |
| CC(=O)c1cccc(N2C(=O)C3C(C2=O)C3(c2ccccc2)c2ccccc2)c1 (stereo not shown) | -0.251% |
| COc1cccc(C2C(C#N)=C(N)OC(C)=C2C(C)=O)c1OC (stereo not shown) | 3.32% |
| COc1cccc(C2C(C(=O)c3ccc(Cl)cc3)=C(O)C(=O)N2CCCn2ccnc2)c1 (stereo not shown) | 1.81% |
| COc1ccc(C(=O)CCC(=O)N2CCN(c3ccc(N4CCOCC4)nn3)CC2)cc1 | -1.7% |

| Structure (SMILES) | % Inhibition @ 10 uM |
| --- | --- |
| Cc1ccc(NC(=O)COc2ccc(C)cc2)cc1 | 2.59% |
| CCSc1nc2c(c(=O)n1C1CCOC(C)(C)C1)C1(CCCCC1)Cc1ccccc1-2 (stereo not shown) | 2.81% |
| O/C(=C\c1nc2ccccc2nc1O)c1ccco1 | 1.8% |
| Cc1nn(C)c(C)c1S(=O)(=O)N1CCCC(C(=O)NC(C)c2ccccc2)C1 (stereo not shown) | 5.58% |
| CCC(C)NC(=O)C1CCCN(c2ncnc3onc(-c4ccc(F)cc4)c23)C1 (stereo not shown) | -2.9% |
| Cc1ccc2c(=O)cc(C(=O)Nc3nc4ccc(C)cc4s3)oc2c1 | 0.248% |
| COc1cc2c(cc1OC)C(C(=O)NC1CCCC(C)C1C)C(c1cccs1)N(C)C2=O (stereo not shown) | -2.12% |
| COc1ccc(C2=NS(=O)(=O)N(C)C(C(=O)NC(C)C)=C2)cc1 | 9.86% |
| CN(C)/C=N/c1ncnc2c1cnn2-c1ccc(C(F)(F)F)cn1 | 2.07% |
| COc1cc(OC)cc(C(=O)N2CCN(Cc3ccc(Cl)cc3)CC2)c1 | -3.87% |
| CCN(CC)CCCNC(=O)c1sc2ccccc2c1Cl | -6.29% |
| O=C(CCc1ccccc1)Nc1ccncc1 | -1.96% |
| CCOC(=O)c1c(C)[nH]c(C)c1S(=O)(=O)NCCCOC(C)C | -4.78% |
| Cc1cccc(Cn2c(Sc3nc4ccccc4[nH]3)nc3c2c(=O)[nH]c(=O)n3C)c1 | -0.946% |
| O=C(NCCCN1CCN(C2CCCCC2)CC1)C1CCCN(S(=O)(=O)N2CCCCC2)C1 (stereo not shown) | -5.34% |
| Clc1ccc(CN2CCN(c3ccccn3)CC2)cc1Cl | -7.33% |
| COc1ccc(-c2cc(C(=O)NCCO)c(C)o2)cc1OC | -0.403% |
| Cc1ccc(-n2nc3c(c2NC(=O)c2ccc(C(C)(C)C)cc2)CS(=O)(=O)C3)cc1 | -5.82% |
| O=C(COc1ccc(Br)cc1)NCc1cccs1 | -1.04% |
| CCc1cccc(C)c1NC(=O)C(CC(C)C)N1C(=O)c2ccccc2C1=O (stereo not shown) | -7.5% |
| CN(C)c1ccc(/C=C/c2cc(C(F)(F)F)nc(O)n2)cc1 | -0.988% |
| Cc1cc([N+](=O)[O-])ccc1NC(=O)c1ccc(Cl)cc1Cl | 2.46% |
| Cc1cc(Cl)ccc1OCC(=O)Nc1ccc(S(=O)(=O)N2CCCCC2)cc1 | -3.95% |
| Cc1ccsc1-c1nc(CSCC(=O)NCc2cccs2)c(C)o1 | 0.689% |
| c1ccc(-c2ccc(-c3csc(Nc4cccc5ccccc45)n3)cc2)cc1 | 6.11% |

| Structure (SMILES) | % Inhibition @ 10 uM |
| --- | --- |
| Cc1ccc(C(C)C)c(OCc2ccccc2C(=O)O)c1 | 0.776% |
| O=C(CSc1ncc(-c2ccccc2)nn1)NC1=NN=C(c2ccccc2)CS1 | -4.19% |
| CCN(CCc1ccccc1)CCN(C)C | -0.446% |
| COc1ccc2[nH]c3c(c2c1)CCCC3=O | 1.54% |
| COc1cc(C(=O)Nc2ccc(S(=O)(=O)Nc3cc(C)cc(C)c3)cc2)cc(OC)c1OC | -0.425% |
| CCC(C)NC(=O)c1noc2c1COc1ccc(C)cc1-2 (stereo not shown) | -7.84% |
| Cn1nc(C(=O)NCCN(Cc2ccco2)C2CCCC2)c2c1-c1ccccc1OC2 | -1.72% |
| Cc1ccccc1S(=O)(=O)NC(=O)Nc1ccnn1-c1ncc(C(F)(F)F)cc1Cl | -5.34% and -4.12% |
| CN(Cc1ccccc1)S(=O)(=O)c1ccc2[nH]cc(C=O)c2c1 | 7.79% |
| CS(=O)(=O)c1ccc2nc(NC(=O)C3CC=CCC3C(=O)O)sc2c1 (stereo not shown) | 0.751% |
| Cc1ccc(CNC(=O)Cn2c(SCc3ccc(C)cc3)nc3cccnc32)cc1 | 0.693% |
| CC(C)Oc1ccccc1/C=C1\CCc2ccccc2C1=O | 1.07% |
| COc1cccc(C2C(C(=O)Nc3cccnc3)=C(C)Nc3nc(CCCO)nn32)c1 (stereo not shown) | -1.2% |
| CCn1cc(C(=O)O)c(=O)c2cc(F)c(N3CCNCC3)c(F)c21 | 1.86% |
| CC(C)C[C@H](NC(=O)c1cccnc1)C(=O)N[C@@H](CCc1ccccc1)C(=O)c1ncc(-c2ccccc2)o1 | 0.744% |
| CC1(C)Nc2ccccc2C(=O)N1c1ccc(Br)cc1 | -2.03% |
| Cc1ccc(C2CC(C(F)(F)F)n3nc(C(=O)NCc4cnn(C)c4C)c(Cl)c3N2)cc1 (stereo not shown) | -6.38% |
| Cc1ccc(-n2nc(C)c3c(C(=O)NCCc4c[nH]cn4)cc(C)nc32)cc1 | 3.75% |
| COc1ccc(S(=O)(=O)N(C)CC(=O)NCc2ccc(Cl)cc2)cc1OC | -2.5% |
| CC(=O)Nc1ccc(NC(=O)c2ccc(C3SCC(=O)N3CCc3ccccc3)cc2)cc1 (stereo not shown) | -3.72% |
| COc1cccc(-c2nc3nc(C)c(CCC(=O)N4CCCC4)c(C)n3n2)c1 | -6.03% |
| O=c1[nH]c(=O)n(-c2ccc(Cl)cc2)c2c1C(C(F)(F)F)(C(F)(F)F)NC(c1cccnc1)=N2 | -5.23% |
| Oc1ccc(Nc2nc(-c3ccccc3)cs2)cc1 | 1% |
| Cc1ccc2oc(C(=O)N3CCC(Cc4ccccc4)CC3)cc(=O)c2c1 | 1.9% |
| CCC(Sc1ncccc1C(=O)OCCN1CCCC1=O)C(=O)NCc1ccco1 (stereo not shown) | -3.35% |

| Structure (SMILES) | % Inhibition @ 10 uM |
| --- | --- |
| Cc1[nH]nc2c1C(c1cc(COc3ccc(F)cc3Cl)c(C)s1)C(C#N)=C(N)O2 (stereo not shown) | -0.305% |
| CC(=O)c1ccc(Oc2nnnn2-c2ccccc2)cc1 | 2.72% |
| C(#Cc1ccccc1)CN1CCCCCC1 | -0.988% |
| COc1ccc(CC(=O)N2CCN(C)CC2)cc1OC | -5.48% |
| Cc1ccc(C(=O)N/C(=C\c2ccco2)C(=O)N2CCN(c3ccccn3)CC2)cc1C | -4.93% |
| CC(C)(C)NC(=O)NCCC12CC3CC(CC(C3)C1)C2 | -6.47% |
| COc1ccc(C(NC(=O)CC(C)C)c2ccc3cccnc3c2O)cc1OC (stereo not shown) | -3.27% |
| COc1cc(OC)c(-c2nnc3n(CCc4ccccc4)c(=O)c4ccccc4n23)cc1OC | -1.72% |
| CCOc1ccc(NC(=O)CN(c2ccc(OC)c(Cl)c2)S(C)(=O)=O)cc1 | 1.52% |
| CC1CC(C)CN(C(=O)c2cccc3c2-c2ccccc2C3=O)C1 (stereo not shown) | -4.7% |
| CCOC(=O)C1=C(CC)OC(N)=C(C#N)C1c1cccc2ccccc12 (stereo not shown) | 0.317% |
| CCOC(=O)c1sc2nc(C)c(C)c(C)c2c1NC(=O)c1ccccc1Cl | 4.19% |
| COc1ccc2ncc(S(=O)(=O)c3ccccc3)c(N3CCC(C)CC3)c2c1 | -2.84% |
| O=C(Nc1cccc(F)c1)c1cc(Cl)c(Cl)c(S(=O)(=O)N2CCOCC2)c1 | 8.72% |
| Cc1ccc(Cc2nn[nH]n2)cc1 | 3.5% |
| COc1cc(OC)c(CN2CCCCC2)cc1Br | 3.48% |
| COc1ccc(-n2nc3c(c2NC(=O)Cc2ccc(OC)c(OC)c2)CS(=O)(=O)C3)cc1 | 3.23% |
| Cc1ccc(C(=O)NC2CCN(Cc3ccccc3)CC2)cc1 | -1.52% |
| COc1ccccc1NC(=O)C1CC=CCC1C(=O)N(c1ccccc1)c1ccccc1 (stereo not shown) | -1.74% |
| CC(C)OCCCNC(=O)C1CCN(C(=O)c2cnn(-c3ccccc3)c2-n2cccc2)CC1 | 0.137% |
| Cc1ccc(Oc2ccc(NC(=O)c3c(C(=O)O)cccc3[N+](=O)[O-])cc2)cc1C | 40.1% |
| COc1cc(S(=O)(=O)NCCCN2CCOCC2)ccc1-n1cnnn1 | -12.7% |
